# Reference: PubChem BioAssay AID720708 (National Center for Advancing Translational Sciences (NCATS), 2013)
# In all, about 360,000 compounds went through this assay and about 660 (0.18%) were called active. Inconclusive results, whose numbers are uncertain, are shown with a selection of clear calls. Calls follow the shape of the dose curve; as a rule, active = well fitted inhibition curve with a large enough effect; inconclusive = small, poorly fitted or top-dose-only effect; inactive = no such curve, though single readings can be large or run the other way. No potency is given beside an inconclusive call; the fits are too rough.
# Target: Rap guanine nucleotide exchange factor 4 (Homo sapiens) (UniProt Q8WZA2)
# Assay: qHTS for Antagonist of cAMP-regulated guanine nucleotide exchange factor 2 (EPAC2): primary screen; also: nearly all actives have a fitted effect of over 45% in size
# Conditions: EPAC2 GEF exchange of Rap1B-BODIPY-GDP, fluorescence; activity, negative = inhibition: at 114 µM (top of the series) unless noted
# % is scaled to controls: 0 for no effect and ±100 for the full control effect; potency is read from the fitted curve at half-maximal effect; tags tell the direction and shape of the fitted curve.
# Chain of UniProt Q8WZA2 (Q8WZA2 whole entry, looked up): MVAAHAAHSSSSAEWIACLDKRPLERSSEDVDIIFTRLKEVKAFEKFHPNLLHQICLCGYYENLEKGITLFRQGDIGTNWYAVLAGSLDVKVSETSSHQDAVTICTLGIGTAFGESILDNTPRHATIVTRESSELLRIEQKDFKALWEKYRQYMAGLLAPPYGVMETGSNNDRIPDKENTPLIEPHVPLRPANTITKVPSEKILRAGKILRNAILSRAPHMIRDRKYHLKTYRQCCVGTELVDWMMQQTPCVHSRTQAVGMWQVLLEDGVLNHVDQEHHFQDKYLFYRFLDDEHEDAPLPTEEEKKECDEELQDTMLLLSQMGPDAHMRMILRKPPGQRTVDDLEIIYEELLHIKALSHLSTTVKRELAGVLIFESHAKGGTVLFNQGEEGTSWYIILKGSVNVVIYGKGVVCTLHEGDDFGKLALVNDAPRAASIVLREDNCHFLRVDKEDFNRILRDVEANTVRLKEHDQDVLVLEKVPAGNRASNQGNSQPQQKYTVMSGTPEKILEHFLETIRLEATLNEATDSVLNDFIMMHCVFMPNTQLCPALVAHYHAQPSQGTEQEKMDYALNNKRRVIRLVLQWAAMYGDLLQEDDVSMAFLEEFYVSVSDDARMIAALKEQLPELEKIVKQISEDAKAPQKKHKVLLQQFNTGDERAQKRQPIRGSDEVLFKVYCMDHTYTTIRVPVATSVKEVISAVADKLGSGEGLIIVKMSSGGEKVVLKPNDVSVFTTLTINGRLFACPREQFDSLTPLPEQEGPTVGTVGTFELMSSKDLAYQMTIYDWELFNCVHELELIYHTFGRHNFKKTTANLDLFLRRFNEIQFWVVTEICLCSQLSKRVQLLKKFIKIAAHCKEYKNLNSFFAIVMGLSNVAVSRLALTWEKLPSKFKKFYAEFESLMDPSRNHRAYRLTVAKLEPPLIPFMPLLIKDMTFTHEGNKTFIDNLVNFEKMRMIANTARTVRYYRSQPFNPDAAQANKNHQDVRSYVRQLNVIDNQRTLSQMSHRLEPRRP
Compound,Potency,"activity, negative = inhibition"
CCN1CCN(CCNC(=O)c2ccc3c(c2)N(Cc2ccc(F)cc2)C(=O)/C(=C/c2ccccc2)S3)CC1,"inconclusive [inhibitor, partial curve]",–
C=CCN(c1nc(C)c(Br)c(OC)n1)S(=O)(=O)c1ccc(C)cc1,"inconclusive [inhibitor, full curve, poor fit]",–
Cc1ccc(NC(=O)c2cc(C)no2)cc1,–,inactive: 1.32%
Oc1c(Br)cc(Cl)cc1C=Nc1ccccc1Br,"inconclusive [inhibitor, partial curve]",–
N/N=C/C(=N\Nc1ccc(Cl)cc1)C(=O)c1ccncc1,–,inactive: -7.98%
Cc1ccc(C(=O)NCCSC(C)(C)C)cc1,–,inactive: 8.96%
CC1(C(=O)NS(=O)(=O)c2ccc(Cl)cc2)CCN1C(=O)C1(c2ccc(Cl)cc2)CCC1 (stereo not drawn),"inconclusive [inhibitor, single point]",–
COc1ccc(C(=O)N[C@H](C(=O)N2CCN(c3ccccc3F)CC2)C(C)C)cc1,–,inactive: 0.0843%
Cc1ccc(NC(=O)NCCN2CCCCC2)cc1,–,inactive: 0.139%
O=c1c(-c2ccccc2)c(-c2ccccc2)oc2cc(O)cc(O)c12,"inconclusive [inhibitor, single point]",–
COc1ccc(C(=O)c2c(-c3ccc(OC)cc3)oc3ccccc23)cc1,"inconclusive [inhibitor, partial curve]",–
Cc1ccc(/C=C/C(=O)Nc2ccncc2)o1,–,inactive: -2.5%
Cc1ccc(S(=O)(=O)N(C)S(=O)(=O)c2ccc(C)cc2)cc1,"inconclusive [inhibitor, single point]",–
COc1ccc(CNC(=O)c2csc3c2CCCC3)cc1,"inconclusive [inhibitor, full curve, poor fit]",–
CC1(Cc2ccc(Cl)cc2)C(=O)Nc2c(Cl)ccc(Cl)c21 (stereo not drawn),"inconclusive [inhibitor, partial curve]",–
O=C(Nc1ccc2c(c1)OCO2)c1cc(-c2cccnc2)nc2ccccc12,–,inactive: 3.48%
CCOC(=O)C1=CCN(S(=O)(=O)c2ccc(C)cc2)C1c1cccs1 (stereo not drawn),"inconclusive [inhibitor, single point]",–
COc1ccc(C(Sc2ccccc2)c2ccccc2)cc1OC (stereo not drawn),"inconclusive [inhibitor, full curve]",–
Cc1cccc(/C=N/N(CCO)C2=NS(=O)(=O)c3ccccc32)c1,"inconclusive [inhibitor, single point]",–
CC(N)C12CC3CC(CC(C3)C1)C2 (stereo not drawn),"inconclusive [inhibitor, single point]",–
CCc1ccc(S(=O)(=O)Nc2cc(SCC(=O)O)c(O)c3ccccc23)cc1,"inconclusive [inhibitor, partial curve]",–
Cc1cccc(NC(=O)c2cc3cc([N+](=O)[O-])ccc3s2)n1,–,inactive: 1.57%
COC(=O)c1cc(Sc2cccc(Cl)c2Cl)ccn1,"inconclusive [inhibitor, full curve]",–

Compound,Potency,"activity, negative = inhibition"
CC(C)n1c(SCC(=O)Nc2ccccc2)nc2c1c(=O)[nH]c(=O)n2C,–,inactive: 7.41%
CC(C)c1nnc(N2C(=O)C(O)=C(C(=O)c3cccs3)C2c2ccccc2)s1 (stereo not drawn),–,inactive: 0.174%
COc1ccc(CC(=O)Nc2ccc(S(=O)(=O)Nc3nccs3)cc2)cc1,"inconclusive [inhibitor, partial curve]",–
CCOC(=O)c1cc2c(ccn2C)n1Cc1ccc(Cl)cc1,"inconclusive [inhibitor, partial curve]",–
CCN(Cc1ccccc1)S(=O)(=O)c1ccc2c(c1)NC(=O)CS2,"inconclusive [inhibitor, partial curve]",–
CCCNC(=O)C1(C)CCCN(Cc2ccc(Oc3ccccc3)cc2)C1 (stereo not drawn),–,inactive: -11.1%
O=C(/C=C/c1ccco1)Nc1cccc2cccnc12,"inconclusive [inhibitor, single point]",–
C=CCOC(=O)C1=C[C@H](C2CCCCC2)[C@@H](CCCO)[C@H](OCC)O1,"inconclusive [inhibitor, partial curve]",–
O=C1NC[C@H](Cc2ccc(O)cc2)N(C[C@@H]2CCCN2C[C@H](Cc2ccccc2)N2C[C@H](Cc3ccccc3)N(CC3CCCCC3)C(=O)C2=O)C1=O,"inconclusive [inhibitor, partial curve]",–
O=C(CNCc1ccccc1)Nc1cccc(Cl)c1Cl,"inconclusive [inhibitor, partial curve]",–
C#CCOCCOCCOCCNc1nc(N2CCN(C(=O)CCCCCCCCCCNC(=O)[C@H]([C@@H](C)CC)n3cc(CCCCCN)nn3)CC2)nc(N2CCN(C(=O)CCCCCCCCCCNC(=O)[C@@H]([C@H](C)O)n3cc(C)nn3)CC2)n1,"inconclusive [inhibitor, partial curve]",–
COc1ccc(C(=O)NCc2nnc(SCC(=O)N3CCCC3)o2)cc1OC,–,inactive: 3.65%
COc1ccc2[nH]c(C(=O)O)c(CCNC(=O)/C=C/c3ccc(O)c(OC)c3)c2c1,–,inactive: -9.01%
COc1ccc2c(COC(=O)[C@H](C)NS(=O)(=O)c3ccccc3F)cc(=O)oc2c1,–,inactive: -7.47%
CCCN(CCC)c1nc(-c2ccccn2)nc2ccccc12,"inconclusive [inhibitor, partial curve]",–
COc1ccc(Br)cc1C(=O)NC(=S)Nc1ccc(Cl)c(C(=O)O)c1,"inconclusive [inhibitor, full curve, poor fit]",–
O=C(COC(=O)c1ccc(S(=O)(=O)Nc2ccccc2)cc1)NC1CCCC1,"inconclusive [inhibitor, single point]",–
CC(C)(C)C1=CC(=O)C(N2CCOCC2)=CC1=O,–,inactive: 1.32%
Cc1nn(-c2ccccc2)c(Cl)c1/C=C1\SC(=S)N(CCCCCC(=O)O)C1=O,active: 39.8 µM,–
Nc1ccc(N2CCN(c3ccc(F)cc3)CC2)cc1,–,inactive: 4.65%
Cc1cc(C)c(SCCc2ccncc2)c(C)c1,"inconclusive [inhibitor, partial curve]",–
CC(C)(C)c1ccc(N=C2SCC(=O)N2Cc2cccs2)cc1,"inconclusive [inhibitor, full curve, poor fit]",–
C[C@H](CO)N1C[C@H](C)[C@@H](CN(C)C(=O)Nc2ccc(C(F)(F)F)cc2)Oc2c(NS(=O)(=O)c3cccs3)cccc2C1=O,–,inactive: -20.1%

Compound,Potency,"activity, negative = inhibition"
Cc1cccc(C)c1-n1cccc1/C=C1/C(=N)N2C(=NC1=O)SN=C2S(C)(=O)=O,"inconclusive [inhibitor, partial curve]",–
O=C1C(Cl)=C(O)C2(Cl)C(Cl)=C(Cl)C12Cl (stereo not drawn),"inconclusive [inhibitor, partial curve]",–
COc1cc(S(=O)(=O)Nc2ccc3cn[nH]c3c2)ccc1Cl,"inconclusive [inhibitor, single point]",–
COc1ccc(-c2cc(=O)oc3cc(OCC(=O)N[C@@H](Cc4c[nH]c5ccccc45)C(=O)O)ccc23)cc1,"inconclusive [inhibitor, single point]",–
C/C(=N\Nc1ccc(Cl)c(C(=O)O)c1)c1cccc([N+](=O)[O-])c1,–,inactive: 11.5%
O=C(NCc1cc(C(F)(F)F)ccc1Cl)c1cccc2c1C(=O)c1ccc(N3CCC(N4CCCCC4)CC3)cc1S2(=O)=O,"inconclusive [inhibitor, single point]",–
Cc1ccc(-c2cc(C(=O)N/N=C/C(Br)=C/c3ccccc3)n[nH]2)o1,"inconclusive [inhibitor, single point]",–
COc1ccc(NC(=O)c2cc(-c3ccc(C)o3)nc3ccccc23)cc1OC,"inconclusive [inhibitor, partial curve, poor fit]",–
COC(=O)c1cn(C(=O)c2cc(OC)cc(OC)c2)c2ccccc12,"inconclusive [inhibitor, full curve]",–
CC1(C(=O)NS(=O)(=O)C2CC2)CCCN(C(=O)c2cccc(OC(F)(F)F)c2)C1 (stereo not drawn),–,inactive: 12.7%
CCOc1ccc(NC(=O)c2c[nH]n3c(=O)cc(C4CCN(C(=O)OC(C)(C)C)CC4)nc23)cc1,"inconclusive [inhibitor, single point]",–
Cc1nc(=O)c(-c2ccccc2)c(C)n1CCCCCC(=O)O,"inconclusive [inhibitor, single point]",–
COc1ccc(S(=O)(=O)NC(=O)C2(C)CCN2C(=O)Cc2ccc(-c3ccccc3)cc2)cc1 (stereo not drawn),"inconclusive [inhibitor, partial curve]",–
COc1ccc(-c2nnc(N)s2)cc1,–,inactive: -1.02%
Cc1ccccc1C(=O)NNC(=O)c1ccncc1,–,inactive: 1.15%
COc1cc2c(cc1OC)C(c1ccccc1)N(S(C)(=O)=O)CC2 (stereo not drawn),"inconclusive [inhibitor, partial curve]",–
Cc1cc(C)c(C(O)c2ncc(-c3cccc4ccccc34)[nH]2)c(C)c1 (stereo not drawn),"inconclusive [inhibitor, partial curve]",–
CCC(=O)N(C)/C=C1\Sc2ccccc2C1=O,–,inactive: -11.7%
COC(=O)c1c(C(=O)c2ccc(Br)cc2)n(C)c2ccccc12,"inconclusive [inhibitor, partial curve]",–
COc1ccc(C(=O)NCC2(c3ccccc3)CCCC2)c(OC)c1,"inconclusive [inhibitor, partial curve]",–
O=C(NC(=S)Nc1ccccc1N1CCCC1)c1ccco1,"inconclusive [inhibitor, partial curve]",–
Cc1ccc(-c2c(C(=O)NNC(=S)NCC3CCCO3)csc2C)cc1 (stereo not drawn),"inconclusive [inhibitor, partial curve]",–
